Results taken from the supplement of paper PMC7826260.
This is one part of the list. One pool of 16,384 single-stranded DNAs met each Rep nickase domain in vitro at 3 µM enzyme and 37 °C for 1 h; the strands have 90 letters, of which the middle is given. Uncut reads are compared with the no-enzyme pool on a log2 scale; uncut sequences lie near 0, cut ones below; no hit call is given. Reads are scaled to the total, so uncut sequences can rise above 0 when many others are cut.

Tests used:
Experiment in all cases: uncleaved DNA left, log2 of reads against the no-enzyme library (log2 ratio); higher = less cleavage (more negative = more Rep cleavage of the k-mer); sequences stand for … in CTCGTCCG…ACCGGAGA
[1] = test system: T1, Rep nickase domain of Muscovy duck circovirus
T1 sequence (residues 1-111 of Rep, tag left off): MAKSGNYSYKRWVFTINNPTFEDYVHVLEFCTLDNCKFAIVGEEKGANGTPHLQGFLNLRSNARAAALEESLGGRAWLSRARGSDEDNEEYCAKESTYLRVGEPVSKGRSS
Procedure: (§1)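 A pool of 90-nt single-stranded DNAs with seven random bases just before the constant AC of the nick site (name = the seven bases) was cut by 3 µM recombinant His6-SUMO-tagged Rep nickase domain (300 nM DNA, 50 mM HEPES pH 8.0, 50 mM NaCl, 1 mM MnCl2, 1 h, 37 °C, three replicates). Uncut DNA was amplified and sequenced.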

[2] = test system: T2, Rep nickase domain of banana bunchy top virus
T2 sequence (residues 1-94 of Rep, tag left off): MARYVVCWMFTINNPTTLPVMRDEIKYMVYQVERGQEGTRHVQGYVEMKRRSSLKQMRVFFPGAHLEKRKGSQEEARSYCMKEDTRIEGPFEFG
Procedure: as §1

[3] = test system: T3, Rep nickase domain of cabbage leaf curl virus
T3 sequence (residues 1-116 of Rep, tag left off): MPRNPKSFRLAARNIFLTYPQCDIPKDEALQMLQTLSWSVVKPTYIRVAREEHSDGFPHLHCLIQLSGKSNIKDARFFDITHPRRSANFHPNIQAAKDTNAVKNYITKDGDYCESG
Procedure: as §1

[4] = test system: T4, Rep nickase domain of chickpea chlorotic dwarf virus
T4 sequence (residues 1-124 of Rep, tag left off): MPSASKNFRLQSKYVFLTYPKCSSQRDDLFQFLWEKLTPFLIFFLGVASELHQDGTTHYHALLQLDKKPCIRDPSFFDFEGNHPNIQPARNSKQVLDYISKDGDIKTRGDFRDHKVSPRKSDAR
Procedure: as §1

[5] = test system: T5, Rep nickase domain of faba bean necrotic yellows virus
T5 sequence (residues 1-98 of Rep, tag left off): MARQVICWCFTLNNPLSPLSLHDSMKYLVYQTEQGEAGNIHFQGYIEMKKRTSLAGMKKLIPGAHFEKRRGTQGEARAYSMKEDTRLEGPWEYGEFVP
Procedure: as §1

[6] = test system: T6, Rep nickase domain of maize striate mosaic virus
T6 sequence (residues 1-117 of Rep, tag left off): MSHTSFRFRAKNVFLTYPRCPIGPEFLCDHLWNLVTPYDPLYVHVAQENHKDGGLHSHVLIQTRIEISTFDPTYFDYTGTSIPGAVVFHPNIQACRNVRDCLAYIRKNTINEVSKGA
Procedure: as §1

[7] = test system: T7, Rep nickase domain of porcine circovirus 2
T7 sequence (residues 2-116 of Rep, tag left off): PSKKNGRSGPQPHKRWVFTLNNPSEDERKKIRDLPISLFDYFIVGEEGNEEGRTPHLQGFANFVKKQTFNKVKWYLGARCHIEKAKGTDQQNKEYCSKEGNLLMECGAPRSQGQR
Procedure: as §1

[8] = test system: T8, Rep nickase domain of tomato yellow leaf curl virus
T8 sequence (residues 1-136 of Rep, tag left off): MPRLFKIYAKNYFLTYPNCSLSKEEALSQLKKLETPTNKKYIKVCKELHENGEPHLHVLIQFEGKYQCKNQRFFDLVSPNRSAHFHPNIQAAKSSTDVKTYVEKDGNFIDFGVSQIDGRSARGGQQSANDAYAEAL
Procedure: as §1

[9] = test system: T9, Rep nickase domain of wheat dwarf virus
T9 sequence (residues 1-137 of Rep, tag left off): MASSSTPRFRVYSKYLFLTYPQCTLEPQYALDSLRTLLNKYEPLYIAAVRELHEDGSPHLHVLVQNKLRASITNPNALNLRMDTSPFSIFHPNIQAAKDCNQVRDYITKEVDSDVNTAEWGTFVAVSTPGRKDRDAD
Procedure: as §1

Row | Sequence | uncleaved DNA left (log2) [1] | uncleaved DNA left (log2) [2] | uncleaved DNA left (log2) [3] | uncleaved DNA left (log2) [4] | uncleaved DNA left (log2) [5] | uncleaved DNA left (log2) [6] | uncleaved DNA left (log2) [7] | uncleaved DNA left (log2) [8] | uncleaved DNA left (log2) [9]
1 | GCTTGTT | -2.1 | -0.357 | 0.0353 | -0.0936 | 0.0529 | 0.473 | -2.67 | 0.132 | -0.215
2 | AGCTTTA | 0.0787 | 0.0633 | -0.0898 | -0.566 | 0.00627 | 0.0476 | -1.38 | 0.0243 | 0.157
3 | TTCCTAG | 0.0178 | -0.0232 | -0.604 | -0.532 | -0.163 | -1.12 | -0.056 | -0.062 | -0.156
4 | GATTCTT | -2.87 | -3 | 0.00512 | -1.74 | -0.341 | 1.01 | -3.35 | 0.0244 | -0.0923
5 | CGTCCTA | -0.0246 | 0.0431 | 0.0489 | -0.281 | -0.0684 | -0.245 | -0.219 | 0.0636 | 0.0156
6 | GCCACAG | -0.212 | -0.016 | -0.456 | -0.383 | -0.142 | -0.78 | 0.11 | -0.0552 | -0.11
7 | CACCATG | -0.0765 | 0.0105 | -0.699 | -0.647 | 0.0822 | -1.05 | -0.0893 | 0.245 | 0.0292
8 | TACGATC | -0.0618 | 0.0592 | -0.0428 | -0.972 | -0.0968 | -0.559 | -0.0918 | -0.0826 | 0.0666
9 | GGGAATT | -0.092 | 0.0316 | 0.679 | 1.86 | -0.0733 | 2.12 | 0.0542 | -7.91e-05 | 0.00985
10 | TAAGTGC | 0.0442 | -0.0517 | -0.578 | -1.34 | 0.0579 | -1.32 | 0.14 | 0.0162 | -0.18
11 | TCCGATT | 0.0875 | -0.0753 | 0.259 | -0.974 | 0.221 | 0.196 | -0.166 | 0.0733 | 0.0626
12 | TAGGACA | -0.0303 | 0.0969 | 0.493 | 1.03 | -0.101 | 1.29 | 0.0682 | 0.0513 | 0.176
13 | TTGTGGA | 0.0279 | -0.0741 | -0.126 | -0.32 | -0.012 | -0.784 | 0.0418 | -0.0383 | -0.00317
14 | GACGAAC | 0.0177 | 0.000923 | -0.0364 | 0.438 | -0.00644 | 0.228 | 0.131 | 0.0636 | 0.0807
15 | ACTCGAT | -0.00454 | -0.0825 | -0.141 | -0.13 | -0.0134 | -0.317 | -0.171 | -0.134 | -0.104
